# According to the supplement of paper PMC8728848:
# Some of the results follow.
# B1: CFEM-PPl (Pichia pastoris), F2QPV1 (protein)
# chain: AVATPPACLLACAAEVVKESSDCDALNNIQCICENEGSAIHACLESTCPDGLSSTALQSFEDVCESVGTEANLDE
# Key:
# Experiment in all cases: glycan array binding signal (z-score within array); higher = stronger binding
# Conditions in all cases: glycan notation: IUPAC condensed, linker removed
# [1] = target: Fuc(a1-2)Gal
# How it was run: (§1)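 From the Consortium for Functional Glycomics database, 3228 arrays were curated, keeping only those whose protein sequence was available. Binding is given as a within-array Z-score averaged across arrays sharing a protein sequence and across linkers. Negative Z-scores can be read as non-binding.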
# [2] = target: Fuc(a1-2)Gal(b1-3)GalNAc
# How it was run: as §1
# [3] = target: Fuc(a1-2)Gal(b1-3)GalNAc(a1-3)[Fuc(a1-2)]Gal(b1-4)Glc
# How it was run: as §1
# [4] = target: Fuc(a1-2)Gal(b1-3)GalNAc(a1-3)[Fuc(a1-2)]Gal(b1-4)GlcNAc
# How it was run: as §1
# [5] = target: Fuc(a1-2)Gal(b1-3)GalNAc(b1-3)Gal
# How it was run: as §1
# [6] = target: Fuc(a1-2)Gal(b1-3)GalNAc(b1-3)Gal(a1-4)Gal(b1-4)Glc
# How it was run: as §1
# [7] = target: Fuc(a1-2)Gal(b1-3)GalNAc(b1-4)[Neu5Ac(a2-3)]Gal(b1-4)Glc
# How it was run: as §1
# [8] = target: Fuc(a1-2)Gal(b1-3)GlcNAc
# How it was run: as §1
# [9] = target: Fuc(a1-2)Gal(b1-3)GlcNAc(b1-2)Man(a1-3)[Fuc(a1-2)Gal(b1-3)GlcNAc(b1-2)Man(a1-6)]Man(b1-4)GlcNAc(b1-4)GlcNAc
# How it was run: as §1
# [10] = target: Fuc(a1-2)Gal(b1-3)GlcNAc(b1-2)Man(a1-3)[Fuc(a1-2)Gal(b1-3)GlcNAc(b1-2)Man(a1-6)]Man(b1-4)GlcNAc(b1-4)[Fuc(a1-6)]GlcNAc
# How it was run: as §1
# [11] = target: Fuc(a1-2)Gal(b1-3)GlcNAc(b1-3)Gal(b1-4)Glc
# How it was run: as §1
# [12] = target: Fuc(a1-2)Gal(b1-3)GlcNAc(b1-3)GalNAc
# How it was run: as §1
# [13] = target: Fuc(a1-2)Gal(b1-3)GlcNAc(b1-3)[Fuc(a1-2)Gal(b1-3)GlcNAc(b1-6)]GalNAc
# How it was run: as §1
# [14] = target: Fuc(a1-2)Gal(b1-3)GlcNAc(b1-3)[Gal(b1-4)GlcNAc(b1-6)]Gal(b1-4)Glc
# How it was run: as §1
# [15] = target: Fuc(a1-2)Gal(b1-3)GlcNAc(b1-3)[Neu5Ac(a2-6)Gal(b1-4)GlcNAc(b1-6)]Gal(b1-4)Glc
# How it was run: as §1
# [16] = target: Fuc(a1-2)Gal(b1-3)GlcNAc6S
# How it was run: as §1
# [17] = target: Fuc(a1-2)Gal(b1-3)[Fuc(a1-4)]GlcNAc
# How it was run: as §1
# [18] = target: Fuc(a1-2)Gal(b1-3)[Fuc(a1-4)]GlcNAc(b1-2)Man(a1-3)[Fuc(a1-2)Gal(b1-3)[Fuc(a1-4)]GlcNAc(b1-2)Man(a1-3)]Man(b1-4)GlcNAc(b1-4)GlcNAc
# How it was run: as §1
# [19] = target: Fuc(a1-2)Gal(b1-3)[Fuc(a1-4)]GlcNAc(b1-2)Man(a1-3)[Fuc(a1-2)Gal(b1-3)[Fuc(a1-4)]GlcNAc(b1-2)Man(a1-6)]Man(b1-4)GlcNAc(b1-4)[Fuc(a1-6)]GlcNAc(b1-4)[Fuc(a1-6)]GlcNAc
# How it was run: as §1
# [20] = target: Fuc(a1-2)Gal(b1-3)[Fuc(a1-4)]GlcNAc(b1-3)[Fuc(a1-3)[Gal(b1-4)]GlcNAc(b1-6)]Gal(b1-4)Glc
# How it was run: as §1
# [21] = target: Fuc(a1-2)Gal(b1-3)[Fuc(a1-4)]GlcNAc(b1-3)[Gal(b1-4)GlcNAc(b1-6)]Gal(b1-4)Glc
# How it was run: as §1
# [22] = target: Fuc(a1-2)Gal(b1-4)Fuc(a1-3)]GlcNAc(b1-2)Man(a1-3)[Fuc(a1-2)Gal(b1-4)[Fuc(a1-3)]GlcNAc(b1-2)Man(a1-6)]Man(b1-4)GlcNAc(b1-4)GlcNAc
# How it was run: as §1
# [23] = target: Fuc(a1-2)Gal(b1-4)Glc
# How it was run: as §1
# [24] = target: Fuc(a1-2)Gal(b1-4)Glc6S
# How it was run: as §1
# [25] = target: Fuc(a1-2)Gal(b1-4)GlcNAc
# How it was run: as §1
# [26] = target: Fuc(a1-2)Gal(b1-4)GlcNAc(b1-2)Man
# How it was run: as §1
# [27] = target: Fuc(a1-2)Gal(b1-4)GlcNAc(b1-2)Man(a1-3)[Fuc(a1-2)Gal(b1-4)GlcNAc(b1-2)Man(a1-6)]Man(b1-4)GlcNAc(b1-4)GlcNAc
# How it was run: as §1
# [28] = target: Fuc(a1-2)Gal(b1-4)GlcNAc(b1-2)Man(a1-3)[Fuc(a1-2)Gal(b1-4)GlcNAc(b1-2)Man(a1-6)]Man(b1-4)GlcNAc(b1-4)[Fuc(a1-6)]GlcNAc
# How it was run: as §1
# [29] = target: Fuc(a1-2)Gal(b1-4)GlcNAc(b1-2)[Fuc(a1-2)Gal(b1-4)GlcNAc(b1-4)]Man(a1-3)[Fuc(a1-2)Gal(b1-4)GlcNAc(b1-2)Man(a1-6)]Man(b1-4)GlcNAc(b1-4)GlcNAc
# How it was run: as §1
# [30] = target: Fuc(a1-2)Gal(b1-4)GlcNAc(b1-3)Gal(b1-4)GlcNAc
# How it was run: as §1
binder,measurement,setting,value
B1,glycan array binding signal (z-score),[1],-0.148
same,glycan array binding signal (z-score),[2],-0.217
same,glycan array binding signal (z-score),[3],0.025
same,glycan array binding signal (z-score),[4],-0.119
same,glycan array binding signal (z-score),[5],0.145
same,glycan array binding signal (z-score),[6],-0.182
same,glycan array binding signal (z-score),[7],0.099
same,glycan array binding signal (z-score),[8],-0.22
same,glycan array binding signal (z-score),[9],-0.335
same,glycan array binding signal (z-score),[10],-0.278
same,glycan array binding signal (z-score),[11],-0.261
same,glycan array binding signal (z-score),[12],-0.302
same,glycan array binding signal (z-score),[13],-0.036
same,glycan array binding signal (z-score),[14],-0.115
same,glycan array binding signal (z-score),[15],-0.199
same,glycan array binding signal (z-score),[16],0.053
same,glycan array binding signal (z-score),[17],-0.299
same,glycan array binding signal (z-score),[18],0.009
same,glycan array binding signal (z-score),[19],-0.041
same,glycan array binding signal (z-score),[20],-0.205
same,glycan array binding signal (z-score),[21],-0.202
same,glycan array binding signal (z-score),[22],0.14
same,glycan array binding signal (z-score),[23],-0.216
same,glycan array binding signal (z-score),[24],-0.328
same,glycan array binding signal (z-score),[25],-0.297
same,glycan array binding signal (z-score),[26],-0.349
same,glycan array binding signal (z-score),[27],-0.342
same,glycan array binding signal (z-score),[28],-0.237
same,glycan array binding signal (z-score),[29],-0.101
same,glycan array binding signal (z-score),[30],-0.339
